# Results: the supplement of paper PMC5499739
# The full ranking holds about 16,000 sequences; the median of “Z-score” is about -0.37, and the highest 2% start at about 3.1. This is one part of the list.
# System: RBM10 RRM1-ZnF-RRM2 (GST-tagged construct)
# Assay: RNAcompete 7-mer binding Z-score; higher = stronger binding preference
# Procedure, shortened: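 Each heptamer motif was given a one-sided Z-score for enrichment across the probes that contained it. GST-tagged RBM10 constructs (20 pmol) were combined with 1.5 nmol of a designed pool of 241 399 RNAs of up to 41 nt, transcribed from microarray-derived DNA templates. Binding took place in 1 ml Hepes pH 7.8 buffer containing KCl, NaCl, glycerol, DTT, BSA and glutathione Sepharose beads for 30 min at 4°C. After four 2-min washes at 4°C, bound RNA was identified by microarray hybridisation.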
row,Sequence,RNAcompete 7-mer binding Z-score
1,CUCUCGC,-0.814
2,GGAGCUA,1.01
3,UAGCUCA,-0.664
4,CCUACCG,-0.821
5,AGCAAUC,-0.282
6,UAGGCGG,1.79
7,CAUUUGG,-0.191
8,GUACCCA,-0.643
9,GGGGGCC,1.36
10,GGGACGG,3.05
11,UGCAAGG,1.36
12,CCCGCGC,-0.544
13,CACUCUA,-0.788
14,CCCUUCC,-0.715
15,UUUCUAG,-0.592
16,GGCGUAU,0.345
17,CUUAGAG,-0.395
18,UGUCAGC,-0.439
19,CGUAGUC,-0.439
20,AUAACGU,-0.205
21,AUCACAC,-0.704
22,CUCAACA,-0.704
23,UGGUGAC,0.931
24,AGUCUGA,-0.318

row,Sequence,RNAcompete 7-mer binding Z-score
1,AGUGAGU,0.996
2,AAAAAAU,-0.129
3,GUACAUC,-0.253
4,UACAGAU,-0.198
5,CUUUAGU,-0.766
6,GGAUCGC,0.538
7,AGGUUAU,0.65
8,UGAUAUA,-0.366
9,GGACGGA,2.15
10,UCGAAUC,-0.562
11,UGCUGAC,-0.216
12,GGUCCGC,-0.0561
13,GGUGGUU,2.03
14,CCGGGGU,1.71
15,AAAGCUC,-0.53
16,GGUACUC,-0.118
17,AGUUACU,-0.439
18,GGGUGCC,1.84
19,ACGAAGG,2.87
20,AGCUUAU,-0.73
21,UGAUCUU,-0.883
22,AUACCGC,-0.755
23,UAGUAGA,0.388
24,GGUUUUU,0.472

row,Sequence,RNAcompete 7-mer binding Z-score
1,UGGGACU,1.73
2,UGUCUGC,-0.617
3,AGAGCCC,-1.11
4,UCGUAAG,-0.326
5,GAUUGCU,-0.482
6,CGGUUCU,-0.606
7,GGAGUGA,2.63
8,AGAGUUA,0.199
9,ACAGCAG,0.53
10,UCGUCCA,-0.661
11,AUUGUGG,1.33
12,AUUUAGC,-0.653
13,CGUUACU,-0.504
14,UCUAGUC,-0.632
15,AUGUCGA,-0.347
16,CAUCGGC,-0.493
17,CGCUCAA,-0.566
18,GGUUGGA,2.81
19,AGGUUGG,2.71
20,CAAUCGC,-0.664
21,UCGUCGC,-0.442
22,GGCCAAU,0.00944
23,ACUGCAA,-0.628
24,UUCUCGG,-0.57

row,Sequence,RNAcompete 7-mer binding Z-score
1,AGGUUGC,0.556
2,CUAACCU,-0.792
3,GAUCCUU,-0.723
4,GUCAGUU,-0.289
5,UCUCGGG,-0.198
6,UCAGCGA,-0.373
7,UAUCAGU,-0.402
8,UAGAGCG,0.935
9,CGUUAAA,-0.453
10,CAAAGGA,1.34
11,UUUAGAC,-0.737
12,GCAUGGG,3.08
13,GGCUGAA,0.33
14,UAAGCCA,-0.712
15,CUUGUUA,-0.795
16,AGCGUGA,0.399
17,UGCCACA,-0.497
18,AGUUGAG,1.16
19,UGUUGCC,-0.777
20,UCCGGUA,-0.111
21,CCCCAAU,-0.755
22,CCUACGG,-0.446
23,AUAGAAU,-0.111
24,AUCAAGU,-0.318

row,Sequence,RNAcompete 7-mer binding Z-score
1,CACCGUC,-0.621
2,CGUUCCU,-0.843
3,AUCUAUC,-0.748
4,GAGCUGG,1.63
5,GUAGUUA,0.162
6,GAGGAGU,1.43
7,ACUCUAC,-0.836
8,GAGCGUG,1.1
9,AGCGACC,-0.256
10,ACUACCA,-0.719
11,UUUAGAU,-0.439
12,UGUCAUU,-0.741
13,GAAUCCG,-0.471
14,UGUGACG,0.315
15,ACGUGCU,-0.672
16,GGCAAUA,1.13
17,CUAGUCG,-0.555
18,GCCGUGG,0.927
19,AUCUCGU,-0.755
20,GGACCCG,0.246
21,ACGAACA,0.00944
22,GCUGAUA,-0.278
23,GGGGGCG,2.58
24,AACUUAU,-0.69

row,Sequence,RNAcompete 7-mer binding Z-score
1,CGCGCAG,0.253
2,AACGGAC,0.647
3,AAGACAA,0.13
4,ACGCCUU,-0.865
5,AAAUGAU,0.0313
6,GAGACGC,-0.0452
7,UCACUUG,-0.905
8,AGAAGGG,4.09
9,ACAGGCA,1.41
10,UAAAUGA,-0.187
11,GCCUCGA,-0.668
12,CGAUCCU,-0.836
13,AAUUGUA,-0.326
14,UCACCGA,-0.643
15,GAUAGCA,0.232
16,CUGACCG,-0.672
17,GCCAUUU,-1.01
18,CUCCGGC,-0.759
19,UAUCGCA,-0.65
20,GCGCGGG,2.1
21,UUUCCGA,-0.672
22,ACCAAAC,-0.519
23,UGCGCUC,-0.653
24,AUAGAGG,1.79

row,Sequence,RNAcompete 7-mer binding Z-score
1,AGUAAUA,-0.18
2,ACAAGUA,-0.154
3,GACGGUU,0.712
4,GGGUGAA,3.66
5,AACAUUA,-0.202
6,AAAGAGA,0.778
7,UGGCGGU,1.54
8,UACCUAG,-0.763
9,CCACCAU,-0.664
10,AUUAACC,-0.643
11,UAUCGGU,-0.253
12,GCGUUGG,1.26
13,GCGACUG,-0.027
14,ACGGGGU,3.8
15,ACGGUGC,0.348
16,UGUGUCC,-0.595
17,CCACUCC,-0.792
18,GACGGAU,1.19
19,CAAAGCG,0.177
20,CGUUAGG,0.687
21,ACCAGAA,-0.264
22,CGGUACU,-0.122
23,CGUCAGA,-0.347
24,UACAUGU,-0.246

row,Sequence,RNAcompete 7-mer binding Z-score
1,UAUUACG,-0.311
2,CACGUGU,-0.5
3,ACCCCAC,-0.661
4,GCGAAUA,0.173
5,UAUUUGG,-0.202
6,AGCCCCC,-0.34
7,GCUAUUG,-0.479
8,GGUAGAC,2.01
9,CACAUUC,-0.715
10,CCUCAGA,-0.832
11,UCAAGCU,-0.621
12,GCGUGAA,0.61
13,CCGACGU,-0.541
14,CCGUUGU,-0.595
15,CGAGAGA,0.468
16,UAGGCCC,-0.439
17,ACUAAAC,-0.628
18,AUACGGC,0.075
19,GCGAGUG,1.73
20,CAUUGCC,-0.916
21,GUCUUGU,-0.548
22,ACCCAAU,-0.617
23,ACGUGUC,-0.551
24,GCUAAGG,0.869

row,Sequence,RNAcompete 7-mer binding Z-score
1,CUUGCCC,-0.883
2,GACCUCU,-0.992
3,AAGGUGG,4.32
4,GUAUAUU,-0.238
5,UGCAAGA,-0.0634
6,GUCGAAA,0.104
7,GUCAAAC,-0.326
8,UUAUACC,-0.723
9,AGGUAAU,1.5
10,AUAGCCC,-0.686
11,GGGUAGG,4.42
12,AACCUCC,-0.854
13,UAGCACA,-0.242
14,CAGAUUA,-0.417
15,GACGCAA,-0.235
16,CUGACAC,-0.726
17,AUUAGUU,-0.442
18,GGGUUAC,2.39
19,UAUGUCC,-0.785
20,CCUCAAC,-0.737
21,CUCGUAG,-0.475
22,CACAGCC,-0.657
23,CCUGUAG,-0.69
24,UAAAUGC,-0.384

row,Sequence,RNAcompete 7-mer binding Z-score
1,AGGGUAC,2.7
2,GUUCGUA,-0.307
3,CGCUGGG,1.38
4,ACCAGUC,-0.602
5,AAAACUU,-0.588
6,AGACGCG,-0.482
7,GUCCGAU,-0.606
8,AGGAAGC,1.12
9,ACCUUAA,-0.894
10,AAUGCCU,-0.726
11,ACAUCCU,-0.839
12,AGCCUGA,-0.661
13,UAGUUCA,-0.548
14,AUUCUGA,-0.766
15,UCAAGCG,-0.238
16,CAUCCCG,-0.61
17,GAGUCGG,1.55
18,CAAUUUA,-0.694
